# Measurements published in PubChem BioAssay AID1460 (National Center for Advancing Translational Sciences (NCATS), 2008).
# Values joined by “and” are separate entries in the source; they are usually repeats but may differ in a detail not shown here. Identical values can stand only once. In all, about 270,000 compounds went through this assay and about 5,800 (2.1%) were called active. The inconclusive results got no clear call from the source; some entries with a clear call stand among them for comparison. Calls come from the whole dose curve; as a rule, active = well fitted inhibition curve with a large enough effect; inconclusive = small, poorly fitted or top-dose-only effect; inactive = flat fitted curve, though single readings scatter. Where the call is inconclusive, the potency comes from a doubtful curve fit.
# Molecular target: Microtubule-associated protein tau (Homo sapiens) (UniProt P10636)
# UniProt P10636, sequence (P10636 whole entry, looked up): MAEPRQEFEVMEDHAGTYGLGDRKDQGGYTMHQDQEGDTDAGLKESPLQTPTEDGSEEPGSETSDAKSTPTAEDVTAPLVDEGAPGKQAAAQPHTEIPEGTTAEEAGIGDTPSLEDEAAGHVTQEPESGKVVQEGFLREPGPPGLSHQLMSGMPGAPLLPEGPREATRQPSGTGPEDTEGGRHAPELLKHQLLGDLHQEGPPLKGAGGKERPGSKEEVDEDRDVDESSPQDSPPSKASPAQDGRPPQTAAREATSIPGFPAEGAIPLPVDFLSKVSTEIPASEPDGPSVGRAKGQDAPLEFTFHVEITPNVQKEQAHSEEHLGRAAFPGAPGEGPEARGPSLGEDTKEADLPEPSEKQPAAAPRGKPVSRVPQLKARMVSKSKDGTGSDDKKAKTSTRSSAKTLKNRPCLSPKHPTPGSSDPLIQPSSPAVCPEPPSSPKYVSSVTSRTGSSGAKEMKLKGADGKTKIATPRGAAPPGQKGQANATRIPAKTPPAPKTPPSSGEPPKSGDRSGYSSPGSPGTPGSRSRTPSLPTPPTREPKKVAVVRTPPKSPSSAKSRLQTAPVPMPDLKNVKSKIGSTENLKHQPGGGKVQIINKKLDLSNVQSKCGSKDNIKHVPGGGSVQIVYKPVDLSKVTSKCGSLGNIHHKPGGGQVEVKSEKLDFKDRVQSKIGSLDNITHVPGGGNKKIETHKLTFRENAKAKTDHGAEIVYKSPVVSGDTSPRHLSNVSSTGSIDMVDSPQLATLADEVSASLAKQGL
# Experiment: qHTS for Inhibitors of Tau Fibril Formation, Thioflavin T Binding; note: nearly all actives have a fitted effect of over 55% in size
# Settings: recombinant tau K18 P301L (four-repeat tau fragment), heparin-induced fibrillization, ThT fluorescence; series mostly up to 57.4 µM
# Outline: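 Tau K18 P301L fragment (15 uM unlabeled plus 0.24 uM Alexa 594-labeled) in 100 mM sodium acetate pH 7 with compound, fibrillization induced by 20 uM heparin for 6 hr at 37 C. Thioflavin T (30 uM) added, fluorescence read after 1 hr (ex 450, em 510 nm).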
# Potency is the fitted concentration of half-maximal effect; tags give direction and shape of the fitted curve.
row,SMILES,Potency
1,CCN(CC)S(=O)(=O)c1ccc(-c2csc(=Nc3cccc(C(F)(F)F)c3)n2Cc2ccc3c(c2)OCO3)cc1,inactive
2,COc1ccc(N=C2S/C(=C\c3cc(C)n(C)c3C)C(=O)N2CC(C)C)cc1,"inconclusive: 31.6 µM [inhibitor, single point]"
3,COc1ccc(NC(=O)Nc2cccc(C)n2)cc1,"inconclusive: 12.6 µM [inhibitor, partial curve]"
4,CN(C)/C=C/C(=O)c1cnc2n(c1=O)CCS2,"inconclusive: 28.2 µM [inhibitor, partial curve]"
5,Cc1cc(C)c(NC(=O)c2c(C)oc3c2C2=NCCN2C=N3)c(C)c1,inactive
6,O=C(O)/C=C/C(=O)Nc1ccc(-c2ccccc2)cc1,"inconclusive: 0.355 µM [inhibitor, full curve, poor fit]"
7,Cc1cccc(N2CCN(C(=O)C(C)n3nc(C)n4c(cc5occc54)c3=O)CC2)c1C (stereo not drawn),"inconclusive: 39.8 µM [inhibitor, single point]"
8,COc1ccc2[nH]cc(CCNC(=S)NCCc3ccccc3)c2c1,"inconclusive: 17.8 µM [inhibitor, partial curve]"
9,Cc1ccc(N2C(S)=C(C#N)C(=O)NC2c2ccco2)cc1 (stereo not drawn),"inconclusive: 22.4 µM [inhibitor, single point]"
10,CCOc1ccccc1NC(=S)Nc1ccc2cn[nH]c2c1,"inconclusive: 7.08 µM [inhibitor, partial curve]"
11,CCCN1CCOC(CC(=O)Nc2ccc([N+](=O)[O-])cc2)C1=O (stereo not drawn),"inconclusive: 14.1 µM [inhibitor, partial curve]"
12,Cc1ccc(C(=O)OCc2cc3ccccc3[nH]c2=O)cc1,inactive
13,Cc1cc(C)n2[nH]c(=O)c(N=Nc3cccc(C(F)(F)F)c3)c2n1,"inconclusive: 25.1 µM [inhibitor, partial curve]"
14,Cc1ccc(NC(=O)c2oc3ccc(S(=O)(=O)N4CCCCC4)cc3c2C)c(C)c1,inactive
15,CCCCCCc1cc2cc(-c3nnc(-c4cccc(Cl)c4)o3)c(=O)oc2cc1O,inactive
16,O=C1NC(c2cccc(Cl)c2)Nc2ccccc21 (stereo not drawn),"inconclusive: 14.1 µM [inhibitor, partial curve]"
17,O=C(Nc1ccc(F)cc1)c1oc2ccccc2c1NC(=O)C1CCCCC1,"inconclusive: 7.94 µM [inhibitor, single point]"
18,Cc1ccc(NC(=O)c2ccccn2)c(Br)c1,"inconclusive: 14.1 µM [inhibitor, partial curve]"
19,COC(=O)C1=C(C(=O)OC)[C@@H]2N(C)c3ccc(OC)cc3[C@@]23C[C@@H](C(=O)OC)N=C3N1,inactive
20,CC(=O)Nc1cccc(O)c1,inactive
21,CCCSC1=N/C(=C\C=C\c2ccco2)C(=O)S1,active: 14.1 µM
22,COc1ccc(OCC(=O)N2CCN(c3cccc(Cl)c3)CC2)cc1,"inconclusive: 11.2 µM [inhibitor, single point]"

row,SMILES,Potency
1,CCn1c2ccccc2c2cc(NC(=O)c3cccc([N+](=O)[O-])c3C)ccc21,"inconclusive: 7.94 µM [inhibitor, full curve]"
2,Cc1ccc(Oc2ncccc2C(=O)NCC(=O)O)cc1,inactive
3,Cc1ccc(C(=O)N/N=C(/CC(=O)c2cccs2)C(F)(F)F)cc1,"inconclusive: 20 µM [inhibitor, partial curve]"
4,CCC(Oc1ccc(F)cc1)C(=O)Nc1nc2c(s1)CCCC2 (stereo not drawn),"inconclusive: 28.2 µM [inhibitor, single point]"
5,C/C(=N\Nc1ccc(S(N)(=O)=O)cc1[N+](=O)[O-])c1ccc2c(c1)OCO2,active: 3.55 µM
6,CN1CCN(C2(CNC(=O)c3ccc([N+](=O)[O-])cc3)CCCCC2)CC1,inactive
7,CCOc1ccc(N=C(NC#N)SCC(=O)NC2CC2)cc1,"inconclusive: 15.8 µM [inhibitor, partial curve]"
8,C[n+]1ccc(/C=C/c2c[nH]c3ccccc23)cc1,"inconclusive: 3.16 µM [activator, partial curve]"
9,Cc1ccc(Cn2nc(C)c(NC(=O)CSc3n[nH]c(C)c3[N+](=O)[O-])c2C)cc1,"inconclusive: 14.1 µM [inhibitor, partial curve]"
10,Cc1ccc(S(=O)(=O)N(C)C)cc1NC(=O)Nc1ccccc1F,inactive
11,CCN1CCOC(=O)C1CC(=O)Nc1ccc(C)c(Cl)c1 (stereo not drawn),"inconclusive: 6.31 µM [inhibitor, full curve]"
12,COc1ccc(OC)c(NC(=O)c2c(NCc3ccc(OC)c(OC)c3)sc3c2CCC(C)C3)c1 (stereo not drawn),"inconclusive: 12.6 µM [inhibitor, partial curve]"
13,COc1ccc(CNC(=O)CCC2N=C3c4ccccc4N=C(SCc4ccc(F)cc4)N3C2=O)cc1 (stereo not drawn),inactive
14,CC(=O)Nc1ccc(-c2cc(-c3ccc(NC(C)=O)cc3)nc(-c3ccccc3)n2)cc1,inactive
15,Brc1ccc(CSc2ccc3nnc(-c4cccnc4)n3n2)cc1,"inconclusive: 25.1 µM [inhibitor, single point]"
16,Cc1ccc2nc(NC(=O)c3ccc(S(=O)(=O)N4CCCc5ccccc54)cc3)sc2c1,"inconclusive: 3.16 µM [activator, full curve] and inconclusive: 282 nM [activator, partial curve, poor fit]"
17,CC(=O)n1cc([C@@H]2C=C(C(=O)N3CCN(Cc4ccc5c(c4)OCO5)CC3)O[C@H](OCc3ccc(CO)cc3)C2)c2ccccc21,"inconclusive: 28.2 µM [inhibitor, single point]"
18,CCOC(=O)c1ccc(NC(=O)c2ccc(OC(C)C)c(OC)c2)cc1,"inconclusive: 31.6 µM [inhibitor, single point]"
19,NCCCC[C@@H]1NC(=O)[C@H](CCC(=O)O)NC(=O)c2cc([N+](=O)[O-])cc(I)c2NCC[C@@H](C(N)=O)NC1=O,"inconclusive: 25.1 µM [inhibitor, partial curve]"
20,Cc1ccc(/C=N\NC(=O)Cc2cccn2C)o1,"inconclusive: 14.1 µM [inhibitor, partial curve]"
21,CCOC(=O)C1Sc2[nH]c(=O)sc2C(c2ccc(Cl)cc2)C1C(=O)OCC (stereo not drawn),"inconclusive: 31.6 µM [inhibitor, partial curve]"
